Sequences and labels used below:
B1: TPR 5TU (parent)
chain: GGAUCUUCUCGAUCUAACAAAAAAGACAAAUCUGCCACAAAGCUUGAGAGCAUCUUCGGAUGCAGAGGCGGCAGCCUUCGGUGGCGCGAUAGCGCCAACGUUCUCAACUAUGACACGCAAAACGCGUGCUCCGUUGAAUGGAGUUUAUCAUG

Variants at the floor of the assay are shown more often than the library holds them.

Data on 167 variants can be found in the RNAGym collection of RNA variant scans (doi:10.1073/pnas.2313332121).

Variants of B1 are the subject of the series. Briefly: polymerase ribozyme fitness, log enrichment relative to wild type (log ratio); higher = more active; in vitro selection for triplet polymerase activity. The gist of the method: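 Fitness measures genotype enrichment against wild-type enrichment on a logarithmic scale, with inverse-variance-weighted averaging of replicates. The logarithm is base 2, and genotypes were kept only with ≥10 input reads and ≥1 read per output in Illumina sequencing. The sequenced libraries came from one triplicate in vitro selection round, including frozen incubation at −7 °C, of PCR-built, transcribed mutant libraries of each subunit of a heterodimeric triplet polymerase ribozyme.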
As to G84A C85G A113U A120G G126U, the “polymerase ribozyme fitness (log ratio)” value was not above -4.2. To U82C belongs -0.0678. To U82A belongs -0.0631.

Regarding U82G, the “polymerase ribozyme fitness (log ratio)” value was determined as 0.17. As for G81A G84A C85G A106U C129A U144C, the “polymerase ribozyme fitness (log ratio)” value was not above -4.2. The result for G80C C85A C96G U102A reads not above -4.2; that for G83A C95G, -1.23. To G83A C95U belongs -0.657. To G83A C99U G143A A147U belongs -3.6; to G83U A91C U148A, not above -4.2. Regarding G84A G128U G141C, the “polymerase ribozyme fitness (log ratio)” value is not above -4.2. Consider U82A C93G C108A U134A, for which the “polymerase ribozyme fitness (log ratio)” value was not above -4.2. To G83C G133A belongs -3.62; to G80C G92C G128A U146A, not above -4.2; to G84A U90A A121U, not above -4.2.

As for G80C G86U C125G A137C, the “polymerase ribozyme fitness (log ratio)” value is not above -4.2. To G84A C105U belongs 0.191; to U82C C95U C114A U127A G140C, not above -4.2. To G83C C132G belongs not above -4.2; to G83C C132A, -2.69; to C79U C96A A115U A122G G126A, not above -4.2. For G80C C96U G141C U146C, the “polymerase ribozyme fitness (log ratio)” value was not above -4.2. The result for G80C G86U reads -3.37.

For G83C C125G G133A U145G, the “polymerase ribozyme fitness (log ratio)” value was not above -4.2. The result for G81A G86A A97C reads -0.925; that for G83U A91G G143A A147C, not above -4.2; that for G80C C87U, not above -4.2. To G83A U151G belongs -3.97. In the case of G81A A107U, the “polymerase ribozyme fitness (log ratio)” value was -3.89. To G83C A121U belongs 0.406; to G84A C105U A113C C129A, not above -4.2. To G83A A97U A98U A138U belongs -4.07; to G83U G140U G152U, -3.93; to U82G C85G A110C, not above -4.2. Turning to G83A U90G G94C A110G G152U, the “polymerase ribozyme fitness (log ratio)” value was not above -4.2. The result for G83C G84U A110C reads not above -4.2. The result for G83C A89C A138G A142U reads not above -4.2; that for U82C G94C C108A A110G A113G G140U, not above -4.2. The result for G83C C96U C125A G128U C132U U144G A150G reads not above -4.2; that for G80C C85U C116A U127C U135A, not above -4.2; that for U82G C96A, 0.287. Take U82G C96U: the “polymerase ribozyme fitness (log ratio)” value is -2.13. The result for G83A C108U C125G reads -3.77; that for G83A G141U G143A, not above -4.2. The result for G81A C103G U135C A137U reads not above -4.2; that for C79U G88A C118U U145G, not above -4.2; that for U82A C96G, -0.244. To G80C C85U A137U A147C belongs not above -4.2; to G83U U101G C108A A115U G141A, not above -4.2; to G83A C103G A110G, not above -4.2.

As for G81C U102G U130G G141A, the “polymerase ribozyme fitness (log ratio)” value was not above -4.2. The result for G80A C93U C149G reads not above -4.2; that for G81U G84U A119U G143A, -1.61.

As for G80A C93G C96U, the “polymerase ribozyme fitness (log ratio)” value was -3.96. The result for U82G A91U reads not above -4.2; that for C79U C87G C93A G141U U146G G152A, not above -4.2. Consider G84A U101A C103G G140A U146A A150G, for which the “polymerase ribozyme fitness (log ratio)” value is not above -4.2.

Turning to G84A G112A, the “polymerase ribozyme fitness (log ratio)” value was not above -4.2.

As to G84A C131A, the “polymerase ribozyme fitness (log ratio)” value is -2.79. To G81U C85G G117C U148G belongs not above -4.2; to G80A G84A, -0.264.

With G83U C123A C132G G141U, the “polymerase ribozyme fitness (log ratio)” value is not above -4.2. Regarding G81A A91G C93U G136U, the “polymerase ribozyme fitness (log ratio)” value is not above -4.2. The result for G80C C87U U102G G124C U130A reads not above -4.2. The result for G83U C96U reads -0.875. To G81A G152C belongs -3.29; to G81A A106U, -1.09.

With G83C C105G, the “polymerase ribozyme fitness (log ratio)” value was -2.69. To G83A A107G G126A belongs not above -4.2; to G80C U90G, not above -4.2; to G84C A97G, -1.95.

Take G84C A142G: the “polymerase ribozyme fitness (log ratio)” value was -3.03. The result for G83C G136C U146G reads -3.41. To U82G G84C belongs -4.06; to G81A C105G A121U, -1.1.

With G83U C87U A89C G141A A142G, the “polymerase ribozyme fitness (log ratio)” value is not above -4.2.

As for U82C G84A G117U, the “polymerase ribozyme fitness (log ratio)” value was -0.688. To G83C A89U A91G A106U A121U U148C belongs not above -4.2; to G84A A119U, -0.787; to G83C G94A A98U C125U, -1.82. As for U82C A115G A138U, the “polymerase ribozyme fitness (log ratio)” value was -4.19. To C79U C87G U90G C95U belongs not above -4.2; to G83C G86A A106G G124C, not above -4.2; to G84U A97U, -1.54. To G80A G88C A89G C93U C105U C116A belongs not above -4.2; to G80C C85A C99A C131A, not above -4.2. The result for G80A C99G reads -1.02; that for G83A C85A C118U G140A, not above -4.2; that for G83C C93U C96A, -1.71. For G81U C87A C103G A147C, the “polymerase ribozyme fitness (log ratio)” value was not above -4.2. To G84A G140U belongs -2.64; to G84A G140A, -3.27. The result for G83C C103G G126U A147C reads not above -4.2; that for G84A G100C, not above -4.2. With G83C G92U A137G, the “polymerase ribozyme fitness (log ratio)” value was -3.45.

As to G83U G88A, the “polymerase ribozyme fitness (log ratio)” value is not above -4.2. The result for U82C C95A reads -1.46; that for G84U A89U G126U, -1.58; that for U82A A113C G117U G141C, not above -4.2. The result for G83U A97U G117U G133A reads not above -4.2; that for G83C U101G A106U, -3.95. In the case of G80A G88U G94A G143C, the “polymerase ribozyme fitness (log ratio)” value was not above -4.2. U82G C95G G126C: the “polymerase ribozyme fitness (log ratio)” value is -1.07.

Consider U82A G83C C123U, for which the “polymerase ribozyme fitness (log ratio)” value is -1.12. The result for G80C C93G U127G A150G reads not above -4.2; that for C79U U90C U104G U111G, not above -4.2. For the variant G80A G83A A106U C116G U139C G143A, the “polymerase ribozyme fitness (log ratio)” value is not above -4.2. The result for G83U C95U C118U U144A reads -3.4. The result for U82C G84A A107C A110U reads not above -4.2; that for G84A A115U G126A, -4.17; that for U82G G92C G124C G140A A147G, not above -4.2. The result for G84A A142C reads -1.65; that for G83U C103G A107U, not above -4.2; that for G83A C85U, -1.94. For the variant G81U U82C G83C C93G G143A, the “polymerase ribozyme fitness (log ratio)” value is not above -4.2. The result for G83C U145C reads -2.18; that for G83U G143U, -1.68. The result for G80U A110G reads -4.05; that for G83C U104G, -2.14. To G80A C87G A107G belongs not above -4.2.

As to G84A G86U C95A C99U U101A C123G, the “polymerase ribozyme fitness (log ratio)” value was not above -4.2.

Take U82A C118U: the “polymerase ribozyme fitness (log ratio)” value was -0.0134. The result for G81A C95U reads -1.88; that for G83C A150G, -2.66. The result for U82A G126A reads 1.28; that for G80A G84A A120G, -1.33; that for G81A G133U, -3.84. To G81A G133C belongs -3.84; to G83C A138U C149G, not above -4.2; to G80C C93G, -4.2. With G81C C87A U127C U144A U148A, the “polymerase ribozyme fitness (log ratio)” value was not above -4.2. Regarding G81U G92C C116A G133C, the “polymerase ribozyme fitness (log ratio)” value was -3.35. To U82G G86A C96A belongs -2.04; to G83U A113U, -2.14; to C79U C85U A89U C118A C131A, not above -4.2.

On to G84C C93A G140C, for which the “polymerase ribozyme fitness (log ratio)” value is not above -4.2. As to G83A A110C C123G, the “polymerase ribozyme fitness (log ratio)” value was not above -4.2. To G83U C99G U145G belongs not above -4.2; to G83A C85U G128A C132U, not above -4.2; to G83U C87U, -1.25.

For G83A G88U U111G U135A, the “polymerase ribozyme fitness (log ratio)” value was not above -4.2. To G84A A110G C114G belongs not above -4.2. The result for G83C G140A reads not above -4.2; that for G83A G126C, 0.173. To G81C A91U belongs not above -4.2; to G84A G88U, -3.57; to G81A C85A C149U, -0.877.

Consider G84C A120G G128A, for which the “polymerase ribozyme fitness (log ratio)” value was not above -4.2. As to G83U A89C, the “polymerase ribozyme fitness (log ratio)” value is -0.953. To G83A A147C belongs 0.0173.

For G81C C87A A91U C93U C114G A138C G141C, the “polymerase ribozyme fitness (log ratio)” value is not above -4.2. Turning to U82A C93G G126U, the “polymerase ribozyme fitness (log ratio)” value is -2.84. The result for G80U G84C A97G U134C reads not above -4.2; that for U82A C129A, -2.19. The result for G84A A121C U127G reads -2.56; that for G80C C87U C118A, not above -4.2; that for G84A A150G, -0.63. The result for G80C C87A C93U U146C reads not above -4.2. Turning to U82A U90G G128A, the “polymerase ribozyme fitness (log ratio)” value was not above -4.2. G83A C95A A113U: the “polymerase ribozyme fitness (log ratio)” value is -3.12. To G83C C85G C103A belongs not above -4.2. Take G83A G128A: the “polymerase ribozyme fitness (log ratio)” value was -3.83.

For the variant G80U C93A C108G A138U G141A, the “polymerase ribozyme fitness (log ratio)” value is not above -4.2. To G84A belongs -0.547. To G84U belongs -1.91; to G84C, -1.76; to G83A A150U, 0.356.
